{
  "source": "PubChem BioAssay AID463173",
  "about": "(ICCB-Longwood Screening Facility, Harvard Medical School, 2010)",
  "note": "The campaign covered roughly 52,000 compounds. About 1,700 (3.3%) were called active. Rule as the data show it: active = survival mostly below about 52% (no sharp cut-off); inactive = mostly above about 56%. The list shows a part of the results.",
  "data": [
    {"tested_on": "Wild type", "assay": "S. aureus survival, RN4220 and DeltatarO strains – OD600, teichoic acid synthesis inhibitors, primary screen (AID 463173)", "details": "S. aureus RN4220 wild type/DeltatarO growth, OD600, 18 h, stronger effect = lower value, screened at 18.75 µg/mL (by protocol)", "values": [
      {"compound": "COc1ccc(NC(=O)C2CCC(CNS(=O)(=O)c3ccc4c(c3)C(C)(C)C(=O)N4C)CC2)cc1", "note": "(stereo not given)", "survival": "inactive: 88%"},
      {"compound": "O=C(NCc1ccc2c(c1)OCO2)C1CCN(c2ccc(S(=O)(=O)N3CCCC3)cc2)CC1", "survival": "inactive: 101%"},
      {"compound": "O=C(Nc1nnc(S(=O)(=O)N2CCCCCC2)s1)c1cccc(Br)c1", "survival": "inactive: 14%"},
      {"compound": "Clc1cccc(N2CCN(c3c4c(nc5nncn35)CCC4)CC2)c1", "survival": "inactive: 108%"},
      {"compound": "Cn1cnc(S(=O)(=O)N2CCC(C(=O)Nc3ccc(C#N)cc3)CC2)c1", "survival": "inactive: 94%"},
      {"compound": "O=C(COc1ccccc1)Nc1ccc2nc(SCC(=O)N3CCc4ccccc43)sc2c1", "survival": "inactive: 89%"},
      {"compound": "CCOc1ccc(C(=O)Nc2onc3c2CCCC3)cc1", "survival": "inactive: 83%"},
      {"compound": "N#Cc1ccccc1Cn1c(SCC(=O)Nc2ccc(F)cc2)nc2ccccc21", "survival": "inactive: 83%"},
      {"compound": "CCc1nnc(SCc2ccc(F)cc2Cl)c2cc3sc(C)cc3n12", "survival": "inactive: 96%"},
      {"compound": "c1ccc(-c2cnnn2-c2ccccc2)cc1", "survival": "inactive: 100%"},
      {"compound": "CC(=O)c1ccc(NC(=O)c2nc(-c3ccccc3)n(-c3ccccc3Cl)n2)cc1", "survival": "inactive: 58%"},
      {"compound": "COc1ccc(CNCCCSc2nnnn2C)c(OC)c1", "survival": "inactive: 85%"},
      {"compound": "CCOC(=O)c1ccccc1NC(=O)c1ccc2c(Cl)c3c(nc2c1)CCC3", "survival": "inactive: 84%"},
      {"compound": "CC(C)(C)n1nnnc1C(c1cccnc1)N(Cc1ccccc1)Cc1ccco1", "note": "(stereo not given)", "survival": "inactive: 106%"},
      {"compound": "COc1cccc(CNC(=O)CCn2c(=O)c3cccn3c3cccnc32)c1OC", "survival": "inactive: 86%"},
      {"compound": "Clc1ccc(-n2ccc3ccccc32)cc1", "survival": "inactive: 104%"},
      {"compound": "CCOc1ccc(CNC(=O)C2CCN(S(=O)(=O)c3ccc4c(ccn4C)c3)CC2)cc1", "survival": "inactive: 75%"},
      {"compound": "Cc1nn(CC(=O)NCC(C)c2ccccc2)c(=O)c2cc3ccccc3n12", "note": "(stereo not given)", "survival": "inactive: 85%"},
      {"compound": "COc1cc2oc(=O)c(CC(=O)NCc3ccc(OC)c(OC)c3)c(C)c2cc1Cl", "survival": "inactive: 85%"},
      {"compound": "Cc1ccc(-c2noc(-c3ccc(N4CCCCC4C)c([N+](=O)[O-])c3)n2)cc1", "note": "(stereo not given)", "survival": "inactive: 83%"},
      {"compound": "CCCCn1c(=O)c2oc3ccccc3c2n(Cc2cccc(C)c2)c1=O", "survival": "inactive: 88%"},
      {"compound": "Cc1c(Cl)cccc1NC(=O)c1cc2sccc2n1Cc1ccc(F)cc1", "survival": "inactive: 103%"},
      {"compound": "COc1ccc(N(C)C(=O)c2nc(-c3cccc(F)c3)n3c2CCCCC3)c(OC)c1", "survival": "inactive: 95%"},
      {"compound": "Cc1c(C(=O)Nc2ccc(-c3nc4cc(Cl)ccc4o3)cc2)oc2ccccc12", "survival": "inactive: 129%"},
      {"compound": "Cc1ccc(-c2cc(-c3coc4ccccc4c3=O)c3c(n2)-c2ccccc2OC3)cc1", "survival": "inactive: 81%"},
      {"compound": "Cc1c(-c2cccc(NC(=O)Nc3ccccc3)c2)nc2ncccn12", "survival": "inactive: 64%"},
      {"compound": "Cc1ccc(S(=O)(=O)N2CCc3cc(C(=O)NCCc4ccccc4)ccc32)cc1", "survival": "inactive: 118%"},
      {"compound": "CCOc1ccc(NC(=O)CN2CCN(C3CCCCC3)C(=O)C2=O)cc1", "survival": "inactive: 83%"},
      {"compound": "CCS(=O)(=O)N1CCC2(CC1)OC(=O)C(C)=C2C(=O)NCc1ccccc1C", "survival": "inactive: 88%"},
      {"compound": "N#Cc1ccc2c(c1)nc1c3cccc4cccc(c(=O)n21)c43", "survival": "inactive: 119%"},
      {"compound": "Cc1cc(-c2ccc(S(=O)(=O)NCc3ccccc3Cl)s2)on1", "survival": "inactive: 121%"},
      {"compound": "CC(C)OC(=O)/C(C#N)=C\\c1cccn1C", "survival": "inactive: 111%"},
      {"compound": "N#CCNC(=O)c1cccc(I)c1", "survival": "inactive: 116%"},
      {"compound": "COc1cccc(Cn2c(=O)cc(C)c3c(C)nn(-c4ccc(C)cc4)c32)c1", "survival": "inactive: 80%"},
      {"compound": "CCCCNCc1cccn1-c1sc2c(c1C#N)CCCC2", "survival": "inactive: 109%"},
      {"compound": "Cc1cccc(N2C(=O)C(CC(=O)Nc3ccc(F)cc3)N(C3CCCC3)C2=O)c1", "note": "(stereo not given)", "survival": "inactive: 134%"},
      {"compound": "Cc1ccc(S(=O)(=O)n2nc(-c3ccccc3)nc2NCc2ccccc2Cl)cc1", "survival": "inactive: 82%"},
      {"compound": "COc1ccc(CNC(=O)C(OC(C)=O)c2ccccn2)cc1", "note": "(stereo not given)", "survival": "inactive: 96%"},
      {"compound": "Cc1cc(C)c(C#N)c(NC2CCCCC2)n1", "survival": "inactive: 92%"},
      {"compound": "Cc1oc2ccc(O)c(CN3CCN(C)CC3)c2c1C(=O)Nc1ccc(C(C)C)cc1", "survival": "inactive: 112%"},
      {"compound": "Cc1cc2c(cc1C)CN(c1cccc(C(=O)N/N=C/c3ccco3)c1)C2", "survival": "inactive: 119%"},
      {"compound": "Cc1ccc(-c2cc(C(=O)N3CCN(S(=O)(=O)c4ccc(Br)s4)CC3)[nH]n2)cc1C", "survival": "inactive: 84%"},
      {"compound": "Cc1ccc(C)c(NC(=O)Cn2c(=O)n(Cc3nc(C)no3)c(=O)c3cc4c(cc32)OCO4)c1", "survival": "inactive: 72%"},
      {"compound": "COc1ccc(CNc2nc(-c3ccco3)nn2S(=O)(=O)c2ccc3ccccc3c2)cc1OC", "survival": "inactive: 80%"},
      {"compound": "Cc1cc(C)n2nc(NCc3ccccc3Cl)nc2n1", "survival": "inactive: 87%"},
      {"compound": "CCc1ccc(NC(=O)Cn2c(=O)n(Cc3ccc4c(c3)OCO4)c(=O)c3oc4ccccc4c32)cc1", "survival": "inactive: 85%"},
      {"compound": "CCc1c(C)nc2cc(-c3cc(OC)cc(OC)c3)nn2c1NCCO", "survival": "inactive: 111%"},
      {"compound": "Cc1cc2oc(C(=O)NCCc3ccc(S(N)(=O)=O)cc3)cc(=O)c2cc1C", "survival": "inactive: 90%"},
      {"compound": "CC(=O)Nc1ccc(NC(=O)CSc2cn(CC(=O)N(C(C)C)C(C)C)c3ccccc23)cc1", "survival": "inactive: 97%"},
      {"compound": "Cc1ccc(-c2noc(CN(C3CCCCC3)S(=O)(=O)c3ccc(F)cc3)n2)cc1", "survival": "inactive: 84%"},
      {"compound": "COC(=O)c1cc2occc2n1Cc1nc(-c2ccccc2C)oc1C", "survival": "inactive: 76%"},
      {"compound": "COc1cc(C(=O)NCc2nnnn2-c2ccc(C)c(C)c2)cc(OC)c1OC", "survival": "inactive: 73%"},
      {"compound": "CCC(=O)N1CCc2cc(S(=O)(=O)NC(Cc3ccccc3)C(=O)NCc3ccc(C)cc3)ccc21", "note": "(stereo not given)", "survival": "inactive: 104%"},
      {"compound": "COc1ccc(OCCn2cc(C(=O)c3ccco3)c3ccccc32)cc1", "survival": "inactive: 62%"},
      {"compound": "CCOc1ccccc1CN1C(=O)c2ccccc2C1C(=O)NC1CCCCCC1", "note": "(stereo not given)", "survival": "inactive: 87%"},
      {"compound": "Cc1ccccc1COC(=O)c1ccc(-c2nnn(Cc3ccccc3F)n2)cc1", "survival": "inactive: 72%"},
      {"compound": "CCN1CCN(C(=O)c2ccc3c(c2)N(Cc2c(F)cccc2Cl)C(=O)c2ccccc2S3)CC1", "survival": "inactive: 79%"},
      {"compound": "COc1ccc(-c2nc(C)c(CCNC(=O)c3ccco3)s2)cc1", "survival": "inactive: 82%"},
      {"compound": "CC(C)c1ccc(NC(=O)CSC2=Nc3ccccc3C3=NC(CCC(=O)NCc4ccc(F)cc4)C(=O)N23)cc1", "note": "(stereo not given)", "survival": "inactive: 83%"},
      {"compound": "CCC(C)Sc1nc2c([nH]c3ccccc32)c(=O)n1C", "note": "(stereo not given)", "survival": "inactive: 100%"},
      {"compound": "CC(=O)N1c2ccc(S(=O)(=O)N3CCN(c4cc(Cl)ccc4C)CC3)cc2CC1C", "note": "(stereo not given)", "survival": "inactive: 112%"},
      {"compound": "O=c1c(-c2cc(-c3ccc(F)cc3)nc3c2COc2ccc(Cl)cc2-3)coc2ccc(F)cc12", "survival": "inactive: 70%"},
      {"compound": "O=C(CCCCCn1c(=O)[nH]c2ccccc2c1=O)N1CCN(c2ccc(Cl)cc2)CC1", "survival": "inactive: 85%"},
      {"compound": "COc1cc2c(cc1OC)C(COc1cc(C)cc(C)c1)N(C(=O)c1ccc(S(=O)(=O)N3CCCC3)cc1)CC2", "note": "(stereo not given)", "survival": "inactive: 45%"},
      {"compound": "O=C1c2ccccc2N(Cc2ccc(Cl)cc2)C2=NCCN12", "survival": "inactive: 99%"},
      {"compound": "O=C(CSc1nc2c([nH]c3ccccc32)c(=O)n1-c1cccc(Cl)c1)NCc1ccccc1", "survival": "inactive: 78%"},
      {"compound": "CC(C)C1Oc2ccccc2N(CC(=O)N(Cc2ccccn2)C2CC2)C1=O", "note": "(stereo not given)", "survival": "inactive: 111%"},
      {"compound": "COC(=O)c1ccc(CNC(=O)c2nc(Cn3nc(C)c(Br)c3C)no2)cc1", "survival": "inactive: 78%"},
      {"compound": "CCc1nc2ccc(C(=O)N3CCN(c4cccc(OC)c4)CC3)cc2nc1CC", "survival": "inactive: 92%"},
      {"compound": "CCc1nnc(NC(=O)CSc2nc3c([nH]c4ccccc43)c(=O)n2-c2ccc(C)cc2)s1", "survival": "inactive: 124%"},
      {"compound": "CCOC(=O)C1CCCN(C(=O)Cn2ncc3c4ccccc4n(Cc4ccc(F)cc4)c3c2=O)C1", "note": "(stereo not given)", "survival": "inactive: 138%"},
      {"compound": "O=C(COc1ccccc1)Nc1sc2c(c1C(=O)Nc1ccccc1)CCCCC2", "survival": "inactive: 101%"},
      {"compound": "Cc1ccc(C)c(-c2ccc(=O)n(Cc3ccc(F)cc3Cl)n2)c1", "survival": "inactive: 59%"},
      {"compound": "CCN(CC)c1ccc(C(=O)Nc2ccc3nc(N(CC)CC)cc(C)c3c2)cc1", "survival": "inactive: 71%"},
      {"compound": "CCOC(=O)CNC(=O)CC(c1cc(OC)c(OC)c(OC)c1)N1Cc2ccccc2C1=O", "note": "(stereo not given)", "survival": "inactive: 60%"},
      {"compound": "CCOC(=O)c1ccc(NC(=O)CCn2c(=O)oc3ccccc32)cc1", "survival": "inactive: 133%"},
      {"compound": "CN(Cc1ccccc1)C(=O)Cn1c(=O)c2cccn2c2ccc(F)cc21", "survival": "inactive: 81%"},
      {"compound": "Cc1ccc2[nH]c(CSc3nnc(NC(=O)COc4ccccc4Cl)s3)cc(=O)c2c1", "survival": "inactive: 84%"},
      {"compound": "Cc1ccc(CNC(=O)c2sc3ncnc(N(C)C4CCCCC4)c3c2C)cc1", "survival": "inactive: 81%"},
      {"compound": "CC(C)N(C(=O)CNCc1cccs1)C(C)C", "survival": "inactive: 111%"},
      {"compound": "CCc1ccc(NC(=O)C2CCCN(S(=O)(=O)c3cccc4cccnc34)C2)cc1", "note": "(stereo not given)", "survival": "inactive: 85%"},
      {"compound": "O=S(=O)(NCC(c1ccco1)N1CCOCC1)c1ccc(Cl)cc1", "note": "(stereo not given)", "survival": "inactive: 93%"},
      {"compound": "COc1ccc(Nc2c(-c3ccco3)nc3cccc(C)n23)cc1", "survival": "inactive: 97%"},
      {"compound": "O=C(Nc1ccccc1C(F)(F)F)Nc1c[nH]c(=O)[nH]c1=O", "survival": "inactive: 68%"},
      {"compound": "COc1cc(OC)c(OC)cc1CN1CCc2nc(N3CCN(c4ccccc4F)CC3)ncc2C1", "survival": "inactive: 64%"},
      {"compound": "Cc1ccc2c(C)c(C(=O)N3CCC(c4nc5ccccc5s4)CC3)oc2c1C", "survival": "inactive: 88%"},
      {"compound": "COc1ccc(C2C=C(c3ccccc3)Nc3nc(NS(=O)(=O)c4ccc(C)cc4)nn32)cc1", "note": "(stereo not given)", "survival": "inactive: 66%"},
      {"compound": "Cc1ccc(OCC(=O)N(Cc2ccc(Cl)cc2)CC2CCCO2)cc1C", "note": "(stereo not given)", "survival": "inactive: 71%"},
      {"compound": "CNC(=S)N1CCN(c2cccc(C)c2C)CC1", "survival": "inactive: 102%"},
      {"compound": "Cc1c(C(=O)OC2CCCCC2)[nH]c2c1C(=O)CC(c1ccccc1)C2", "note": "(stereo not given)", "survival": "inactive: 88%"}
    ]}
  ]
}
